In patent US20250114486A1, “MARKED FATTY ACID DERIVATIVE, PRECURSOR COMPOUND THEREOF, AND USE THEREOF IN CONTRAST AGENT” (BEIJING NORMAL UNIVERSITY, priority 2022, published 2025):
Some entries of the source have several records that differ or are many. This list holds those alone. There may be further records. The values listed for one entry read as repeated measurements on other runs, samples or individuals.

Assay: In vivo biodistribution of radioactive ^99mTc complexes in female SD rats
Design: species or system female Sprague-Dawley (SD) rats
Conditions: 30 min post-injection
Procedure: Female SD rats (180-220 g, n=3) were fasted for 12 h before the experiment, and the purified radioactive 99mTc complexes 78-81 were prepared into physiological saline (containing 10% ethanol) solutions of about 250-350 μCi/mL. 200 μL of the above solution was injected into the tail vein of female SD rats, and the rats were killed by cervical dislocation at five time points, 15, 30, 60, 120 and 240 min after the tail vein injection. The blood, brain, heart, liver, spleen, lung, kidney, muscle, bone, large intestine, small intestine, stomach and tail were collected, weighed and counted, and the count distribution of each tissue and organ was calculated (unit: % ID/g, the unit of large intestine, small intestine and stomach is % ID), and the data are the mean±standard deviation of three mice in each phase. At the same time, 200 μL of the above solution was diluted to 20 mL, which was used as the % ID without deducting the tail count.

Heart-to-Lungs ratio: 8.21 ± 0.51 [table] and 8.21 [text]
Compound: COC(C)(C)C[N+]#[C][99Tc-5]([C]#[N+]CC(C)(C)OC)([C]#[N+]CC(C)(C)OC)([C]#[N+]CC(C)(C)OC)([C]#[N+]CC(C)(C)OC)[C]#[N+]CC(C)(C)OCCCCSCCCCC(=O)O [^99mTc complex 79]
